Measurements as given in PubChem BioAssay AID588342 (National Center for Advancing Translational Sciences (NCATS), 2011).
In all, about 360,000 compounds went through this assay and about 25,000 (6.9%) were called active. Inconclusive means that the source gave no clear call. Such entries were picked first, then a sample of the others. The call rests on the fitted dose curve; in most records, active means well fitted inhibition curve with a large enough effect; inconclusive means small, poorly fitted or top-dose-only effect; inactive means flat fitted curve, though single readings scatter. Where the call is inconclusive, the potency comes from a doubtful curve fit.

The compounds below were run against Luciferin 4-monooxygenase (Photinus pyralis) (UniProt P08659) (assay: qHTS profiling assay for firefly luciferase inhibitor/activator using purifed enzyme and Km concentrations of substrates (counterscreen for miR-21 project)). Details: purified FLuc, luminescence inhibition; series mostly up to 57.5 µM; activity change, negative = inhibition: at the top concentration.
Excerpt: MLPCN Grant: 1 R21 NS059478-01 (miR-21 grant) Assay Provider: NCGC NCGC Assay Overview: Firefly (Photinus pyralis) luciferase is one of the most commonly used transcriptional reporters for a number of reasons. It is considered one of the more dynamically responsive reporters -that is, responsive to changes in reporter transcription - as it requires no post-translational modifications and is enzymatically active directly after protein synthesis (Wood, 1998). Additionally, the half-life of the luciferase protein is short relative to other reporter-gene products (Wood, 1995). Whereas reporters with long half-lives potentially allow for increased signal due to accumulation of reporter-gene product, once accumulated in the cell, dynamic changes in reporter-gene expression may be difficult to detect(Fan and Wood, 2007; Almond et al., 2004). It has been shown that wild-type P. pyralis luciferase has a half-life of approximately […] hours in mammalian cells (Thompson et al., 1991). Firefly luciferase reporter-gene assays are also generally considered one of the most sensitive assay types (Wood, 1995; Wood, 1998). Although light produced in a bioluminescence reaction is of lower intensity than that produced during fluorescence emission, this is offset by little to no background light inherent to luminescent assays. Thus the luciferase reporter can be expressed at much lower levels than fluorescent proteins while still providing robust signal. # However, it was initially observed, in 1991, by Thompson et al., that compounds that resemble the substrates of firefly luciferase (FLuc) can act as competitive inhibitors of the enzyme, and that these compounds, upon interaction with luciferase in the cell, can actually stabilize the protein and increase its half-life. Accumulated intracellular FLuc protein can be measured as an increase in luminescence signal, upon addition of detection reagents (which contain high concentrations of FLuc substrates) commonly used in high-throughput screening. In cell-based reporter gene assays that use FLuc as the reporter gene to quantitate the potential influence of a given compound against the target biology, this apparent increase in luminescence can mistakenly be interpreted as identification of a compound that is active against the target of interest. This is the case for the miR-21 FLuc reporter gene assay used to identify inhibitors of the miR-21 pathway (PubChem AID 2289) - compounds of interest will inhibit miR-21 biogenesis/expression or activity, and are identified by causing an increase in luminescence, due to increased FLuc translation. However, FLuc inhibitory compounds that stabilize the FLuc protein will give an identical read-out, making it difficult to distinguish compounds that are active against the target from those active against FLuc. Previous profiling work to determine the prevalence of compounds that affect FLuc enzymatic activity (PubChem AID 411) identified that ~3% of the MLSMR library (then at ~72K) inhibited FLuc. […] Since the MLSMR had grown to ~350K compounds, and since it was expected that a significant percentage of compounds found active in the miR-21 FLuc assay would be FLuc inhibitors, the library was screened for activity against FLuc using a biochemical assay of purified FLuc and KM concentrations of FLuc substrates (D-luciferin and ATP).
NCGC Assay Protocol Summary: Reagents: 50mM Tris acetate, pH 7.5; 10mM Mg acetate; 10uM D-luciferin (Sigma #L9504); 10uM ATP; 0.01% Tween-20; 0.05% BSA; 10nM P. pyralis luciferase (Sigma #L9506) Control compounds used were two known firefly luciferase inhibitors (compounds (2) and (5) in Auld et al., 2010), and DMSO. […]
Further: nearly all actives have a fitted effect of over 55% in size.
Tags describe the fitted curve by direction and shape.
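Wherever activity change, negative = inhibition is given: plate controls were vehicle for no effect and reference inhibitor for full effect.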

Chain of UniProt P08659 (P08659 whole entry, looked up): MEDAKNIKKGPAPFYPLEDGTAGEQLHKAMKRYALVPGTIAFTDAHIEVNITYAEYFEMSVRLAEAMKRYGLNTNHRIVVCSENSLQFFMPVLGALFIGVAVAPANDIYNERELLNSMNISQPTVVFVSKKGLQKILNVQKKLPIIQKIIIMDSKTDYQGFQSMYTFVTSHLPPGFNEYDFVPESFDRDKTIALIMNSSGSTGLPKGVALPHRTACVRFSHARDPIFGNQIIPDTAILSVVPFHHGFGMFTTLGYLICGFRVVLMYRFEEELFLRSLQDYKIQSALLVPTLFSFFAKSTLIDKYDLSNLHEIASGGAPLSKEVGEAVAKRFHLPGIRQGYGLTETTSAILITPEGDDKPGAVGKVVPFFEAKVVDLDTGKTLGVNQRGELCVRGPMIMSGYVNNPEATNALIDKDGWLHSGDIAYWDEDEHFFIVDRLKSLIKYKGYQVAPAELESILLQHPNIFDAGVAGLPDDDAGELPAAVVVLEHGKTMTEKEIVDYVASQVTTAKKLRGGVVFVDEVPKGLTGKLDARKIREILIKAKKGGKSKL

Compound	Potency	activity change, negative = inhibition
Cc1cccc(-c2nnc(SCC(=O)N3CCCc4ccccc43)o2)c1	inconclusive: 19 µM [inhibitor, partial curve, poor fit]	–
c1ccc2sc(N3CN(CCN4CCOCC4)CN(c4nc5ccccc5s4)C3)nc2c1	–	inactive: -0.972%
Cn1nnnc1SCC(=O)Nc1ccc2c(c1)OCCO2	active: 13.5 µM	–
CSCC[C@@H](C(=O)Nc1ccc2c(c1)OCCO2)N1Cc2ccccc2C1=O	active: 19 µM	–
Cc1cc(C)c(C(=O)N(C)C2CCCN(Cc3ccccc3F)C2)o1 (stereo unspecified)	–	inactive: 0.708%
COc1ccc(-c2cn(CCC(=O)O)c(-c3ccncc3)n2)cc1	inconclusive: 21.3 µM [inhibitor, partial curve, poor fit]	–
COC(=O)C1C(=O)C=C(Nc2ccc(F)cc2)CC1c1ccc(OC)cc1 (stereo unspecified)	inconclusive: 21.3 µM [inhibitor, partial curve]	–
Cc1csc(NC(=O)c2ccc(-c3ccc(Cl)cc3Cl)o2)n1	inconclusive: 0.849 µM [inhibitor, full curve]	–
C=CCn1c(=O)c(C(=O)Nc2ccc(C)cc2)c(O)c2ccccc21	inconclusive: 3.79 µM [inhibitor, full curve]	–
O=C(O)CC(NS(=O)(=O)c1ccc(Br)s1)c1ccccc1 (stereo unspecified)	inconclusive: 13.5 µM [inhibitor, partial curve, poor fit]	–
O=C(N/N=C/c1cc(Br)ccc1O)c1ccccc1Cl	inconclusive: 21.3 µM [inhibitor, single point]	–
COc1cc2ccccc2cc1C(=O)N1CCOCC1	–	inactive: 4.45%
COn1c(SCc2ccccc2)nc2ccccc2c1=O	inconclusive: 9.53 µM [inhibitor, partial curve, poor fit]	–
Cc1onc(-c2ccc(Br)cc2)c1C(=O)Nc1ccc(Br)cc1F	inconclusive: 26.9 µM [inhibitor, partial curve, poor fit]	–
NC1=NC(=O)C(Cc2cccc(Cl)c2)S1 (stereo unspecified)	inconclusive: 37.9 µM [inhibitor, partial curve, poor fit]	–
COc1ccc(/C(C)=N/NC(=O)OC(C)(C)C)cc1[N+](=O)[O-]	–	inactive: 0.605%
CCOC(=O)c1scc(-c2ccc(C)cc2)c1S(=O)(=O)Nc1cccc(CC)c1	–	inactive: -13.5%
Cc1c(CCC(=O)O)c(=O)oc2cc(OCc3ccc(Br)cc3)ccc12	inconclusive: 21.3 µM [inhibitor, single point]	–
Cc1nn(C)c(=O)n1-c1ccc(OCc2ccccc2)cc1	inconclusive: 21.3 µM [inhibitor, partial curve]	–
O=C(Nc1cccc(-c2nc3ncccc3o2)c1)c1cc2ccccc2o1	active: 8.49 µM	–
O=c1cc(-c2ccccc2)nc2nc(-c3ccco3)[nH]n12	active: 3.38 µM	–
Cc1oc(C(=O)O)cc1COc1ccc2c3c(c(=O)oc2c1)CCC3	inconclusive: 21.3 µM [inhibitor, single point]	–
CCN(CC)CCNC(=O)c1ccc(-c2nc(CS(=O)(=O)c3ccc(C)cc3)c(C)o2)cc1	–	inactive: 0.241%
COC(=O)C1CN(C(=O)COc2ccccc2C)c2ccccc2O1 (stereo unspecified)	inconclusive: 30.1 µM [inhibitor, partial curve, poor fit]	–

Compound	Potency	activity change, negative = inhibition
CCCc1cc(=O)[nH]c(SCC(=O)c2cc(C)n(CC(F)(F)F)c2C)n1	inconclusive: 37.9 µM [inhibitor, partial curve, poor fit]	–
O=[N+]([O-])c1ccc(-c2nnc(S)n2-c2ccccc2)cc1	inconclusive: 26.9 µM [inhibitor, single point]	–
O=C(N/N=C/c1ccncc1)c1cccc(NC(=O)c2ccccc2Cl)c1	inconclusive: 23.9 µM [inhibitor, single point]	–
NC(=O)NC(=O)COC(=O)c1sc2ccccc2c1Cl	inconclusive: 8.49 µM [inhibitor, partial curve, poor fit]	–
CCOc1ccc(CC(=O)Nc2ccc(NC(=O)c3ccco3)cc2)cc1OCC	–	inactive: -1.45%
O=C(CSC1=NS(=O)(=O)c2cc(F)ccc2N1)Nc1cccc(F)c1	–	inactive: 2.14%
COc1ccccc1OCCNc1cc(N2CCCCC2)ccc1[N+](=O)[O-]	inconclusive: 26.9 µM [inhibitor, partial curve, poor fit]	–
COc1ccc(NC(=O)Cn2cnc3ccc(S(=O)(=O)N4CCC(C)CC4)cc3c2=O)cc1Cl	–	inactive: 4.2%
CC(C)(C)Nc1c([N+](=O)[O-])c(=O)sc2ccccc12	inconclusive: 26.9 µM [inhibitor, partial curve, poor fit]	–
CCOc1ccc2nc(NC(=O)C3=NN(c4ccccc4)C(=O)CC3)sc2c1	inconclusive: 37.9 µM [inhibitor, partial curve, poor fit]	–
COc1ccc(C(=O)O/N=C(\C)c2nccs2)cc1	active: 0.478 µM	–
CC(=O)Cc1nsc(NC(=O)c2ccc(COc3ccccc3)o2)n1	inconclusive: 23.9 µM [inhibitor, single point]	–
Cc1sc2nc(SCC(=O)N3CCOCC3)[nH]c(=O)c2c1-c1ccccc1	inconclusive: 26.9 µM [inhibitor, single point]	–
CC(C)(C)OC(=O)N1CCC(c2c(C(=O)NCCN3CCCC3)cnn2-c2ccc(Cl)cc2)CC1	–	inactive: 1.16%
COc1ccc(Br)cc1/C=N/NC(=O)c1ccc2nc[nH]c2c1	inconclusive: 30.1 µM [inhibitor, partial curve, poor fit]	–
COc1cc(NC(=O)C(=O)NCCN2CCNCC2)c(OC)cc1Cl	–	inactive: -2.04%
CCc1nc(C)cc2c1sc1ccccc12	inconclusive: 23.9 µM [inhibitor, partial curve, poor fit]	–
CCCCNC(=O)c1cc2c(=O)n3cccc(C)c3nc2s1	inconclusive: 37.9 µM [inhibitor, partial curve, poor fit]	–
Cc1cccc(-n2c(Cc3ccccc3)n[nH]c2=S)c1	inconclusive: 13.5 µM [inhibitor, partial curve, poor fit]	–
CC(C)(O)c1cc(=O)sc2nc3ccccc3n12	active: 9.53 µM	–
Cc1ccc(OC(=O)c2ccc(N3CCOCC3)c([N+](=O)[O-])c2)cc1	inconclusive: 23.9 µM [inhibitor, partial curve, poor fit]	–
Cc1nnc(NCc2ccco2)s1	–	inactive: -0.527%
Cc1ccc(CNC(=O)c2oc3ccc(S(=O)(=O)N4CCC(C)CC4)cc3c2C)cc1	–	inactive: 0.882%
Cc1nc2cc3c(cc2c(C)c1C(=O)OC(C)C)OCO3	inconclusive: 26.9 µM [inhibitor, partial curve]	–

Compound	Potency	activity change, negative = inhibition
NC(=O)C1CCN(c2nc(-c3ccccc3)cs2)CC1	inconclusive: 37.9 µM [inhibitor, single point]	–
CCc1ccc(/C(C)=N/NC(=O)c2ccccn2)cc1	inconclusive: 19 µM [inhibitor, partial curve]	–
Cc1ccc(NC(=O)c2ccc(CNc3c(N4CCOCC4)c(=O)c3=O)cc2)cc1	active: 15.1 µM	–
COc1cccc(Nc2cc(C)c3ccccc3n2)c1	active: 23.9 µM	–
Cc1nc(SCc2ccc(F)cc2)c([N+](=O)[O-])[nH]1	inconclusive: 26.9 µM [inhibitor, single point]	–
O=C(NCCCn1ccnc1)c1cc(-c2ccc3c(c2)OCO3)on1	inconclusive: 21.3 µM [inhibitor, partial curve]	–
CC(C)c1cc(C(=O)Nc2cccc(C(F)(F)F)c2)no1	active: 15.1 µM	–
CC(C)c1nc(-c2ccc([N+](=O)[O-])cc2)cs1	active: 16.9 µM	–
O=C(CN1C(=O)S/C(=C\C=C\c2ccccc2)C1=O)Nc1ccc(O)cc1	inconclusive: 4.78 µM [inhibitor, full curve]	–
O=C(CSc1nnc(SCc2cccc3ccccc23)s1)Nc1ccc(C(=O)O)cc1	active: 8.49 µM	–
O=C(O/N=C1/CCSc2ccccc21)c1ccc(F)cc1	active: 0.338 µM	–
Cc1nc(NC(=O)c2ccco2)sc1C(=O)Nc1ccc(Br)cc1	inconclusive: 30.1 µM [inhibitor, partial curve, poor fit]	–
Cc1ccccc1NC(=O)CSc1nc2ccc(NC(=O)c3ccccc3)cc2s1	inconclusive: 9.53 µM [inhibitor, partial curve]	–
Cc1ccc(-c2nc3c(c(=O)[nH]c(=O)n3Cc3ccccc3)n2Cc2ccccc2)o1	inconclusive: 23.9 µM [inhibitor, partial curve]	–
O=C1NC(=O)/C(=C\c2ccc(Cl)nc2)S1	active: 15.1 µM	–
CCn1c(SCC(=O)Nc2nc3c(s2)CCCC3)nnc1-c1ccccc1	–	inactive: -13.6%
O=C(O)CSc1nnc(SCc2cccc3ccccc23)s1	inconclusive: 26.9 µM [inhibitor, single point]	–
O=C(N/N=C/c1ccccc1Cl)c1nc2ccc([N+](=O)[O-])cc2c(=O)[nH]1	inconclusive: 37.9 µM [inhibitor, single point]	–
O=C(CNC(=O)c1ccc(Br)o1)NNC(=O)COc1ccccc1Cl	–	inactive: 1.21%
O=C(c1coc(=O)c(Br)c1)N1CCCc2ccccc21	inconclusive: 30.1 µM [inhibitor, single point]	–
Cc1ccc(NC(=O)Nc2ccc(Cl)cn2)cc1	inconclusive: 5.36 µM [inhibitor, full curve]	–
CC(=O)Nc1ccc(-c2csc(Nc3ccccn3)n2)cc1	inconclusive: 3.79 µM [inhibitor, full curve, poor fit]	–
CC/C(=N\NC(=O)CSc1ncccn1)c1ccc2c(c1)OCCO2	inconclusive: 37.9 µM [inhibitor, partial curve, poor fit]	–
